{"source": "the supplement of paper PMC10600219", "note": "Structures can show the parent of a compound that is named as a salt. In all, about 2,800 compounds were measured (“cell viability relative to vehicle”: median about 1.1, lowest 2% from about 0.19 on). This is one part of the list.", "data": [{"tested_on": "NCI-H2228 parental", "experiment": "cell viability relative to vehicle (fraction of vehicle); NCI-H2228 is an ALK-positive lung cancer line and DTP means drug-tolerant persister; higher = less growth inhibition", "settings": "100 nM; treatment time 6 days", "outline": "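The 3114-agent TargetMol anti-cancer compound library was tested at 100 nM for 6 days on parental NCI-H2228 cells and on persister cells derived with 1000 nM of a targeted drug for 13 days. ATP readout by the CellTiter-Glo 3D Cell Viability Assay gave cell viability relative to DMSO vehicle-treated cells.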", "values": [{"smiles": "Cc1cc(Nc2ncc3c(n2)N(C)C(=O)N(c2cc(NC(=O)c4cccc(C(F)(F)F)c4)ccc2C)C3)n(C)n1", "note": "[Pluripotin]", "cell viability": 0.615}, {"smiles": "O=C(N1CCCC1)n1ccnn1", "cell viability": 1.18}, {"smiles": "Cc1ncc(CO)c(CO)c1O", "note": "[Pyridoxine]", "cell viability": 1.12}, {"smiles": "Cc1ncc(CO)c(CO)c1O", "note": "[Metadoxine]", "cell viability": 1}, {"smiles": "O=C(O)c1ccc(-c2c[nH]c3ncc(-c4ccccc4)cc23)cc1C1CCCC1", "cell viability": 1.05}, {"smiles": "C=CC(=O)Nc1cc(Nc2nccc(-c3c[nH]c4ccccc34)n2)c(OC)cc1N(C)CCN(C)C", "cell viability": 0.638}, {"smiles": "O=[N+]([O-])c1cncn1CCN1CCOCC1", "note": "[Nimorazole]", "cell viability": 0.938}, {"smiles": "CC(C)(NS(=O)(=O)c1ccc2c(Cl)cnc(N=C(N)N)c2c1)C(=O)O", "cell viability": 1.08}, {"smiles": "CCc1c(C)[nH]c2c1C(=O)C(CN1CCOCC1)CC2", "note": "(stereo not drawn) [Molindone hydrochloride]", "cell viability": 1.11}, {"smiles": "Cc1ccc(NCCCc2ccccc2)c(N)c1", "cell viability": 1.06}, {"smiles": "C=CC(=O)Nc1cc(Nc2nccc(-c3cn(C)c4ccccc34)n2)c(OC)cc1N(C)CCN(C)C", "note": "[Osimertinib mesylate]", "cell viability": 1.06}, {"smiles": "C=CC(=O)Nc1cc(Nc2nccc(-c3cn(C)c4ccccc34)n2)c(OC)cc1N(C)CCN(C)C", "note": "[Osimertinib]", "cell viability": 1.03}, {"smiles": "C#Cc1cccc(Nc2ncnc3cc4c(cc23)OCCOCCOCCO4)c1", "note": "[Icotinib]", "cell viability": 1.09}, {"smiles": "N[C@@H](CCC(=O)N[C@@H](CS)C(=O)NCC(=O)O)C(=O)O", "note": "[Glutathione]", "cell viability": 1.17}, {"smiles": "c1ccc(-c2[nH]ncc2-c2ccnc3ccccc23)nc1", "cell viability": 1.05}, {"smiles": "CCN(CC)CC(O)CNc1ccc(NCC2CO2)c2c1C(=O)c1ccccc1C2=O", "note": "(stereo not drawn)", "cell viability": 0.872}, {"smiles": "C[C@@H]1CC[C@@]2(NC1)O[C@H]1C[C@H]3[C@@H]4CC=C5C[C@@H](O[C@@H]6O[C@H](CO)[C@H](O)[C@H](O[C@@H]7O[C@H](CO)[C@@H](O)[C@H](O)[C@H]7O)[C@H]6O[C@@H]6O[C@@H](C)[C@H](O)[C@@H](O)[C@H]6O)CC[C@]5(C)[C@H]4CC[C@]3(C)[C@H]1[C@@H]2C", "note": "[Solasonine]", "cell viability": 1.1}, {"smiles": "CCCSc1nc(N[C@@H]2C[C@H]2c2ccc(F)c(F)c2)c2nnn([C@@H]3C[C@H](OCCO)[C@@H](O)[C@H]3O)c2n1", "note": "[Ticagrelor]", "cell viability": 1.11}, {"smiles": "C=CC(=O)Nc1cccc(Nc2nc(Nc3ccc(Oc4ccnc(C(=O)NC)c4)cc3)ncc2F)c1", "cell viability": 1.14}, {"smiles": "C=C1C[C@@]2(O)O[C@@]3(C[C@H]2C(C)C)[C@@H](C)CC[C@@H]13", "note": "[Curcumol]", "cell viability": 1.09}, {"smiles": "O=C(O)COCCN1CCN(C(c2ccccc2)c2ccc(Cl)cc2)CC1", "note": "(stereo not drawn) [Cetirizine dihydrochloride]", "cell viability": 1.2}, {"smiles": "CCCCNc1ncc2c(-c3ccc(CN4CCN(C)CC4)cc3)cn(C3CCC(O)CC3)c2n1", "note": "(stereo not drawn)", "cell viability": 0.92}, {"smiles": "N[C@H]1C[C@@H]1c1ccc(-c2cccc(O)c2)cc1", "cell viability": 0.967}, {"smiles": "CC(C)c1cc(-c2n[nH]c(=O)n2-c2ccc3c(ccn3C)c2)c(O)cc1O", "note": "[Ganetespib]", "cell viability": 0.118}, {"smiles": "CC(=O)O[C@]1(C(C)=O)CC[C@H]2[C@@H]3C=C(Cl)C4=CC(=O)[C@@H]5C[C@@H]5[C@]4(C)[C@H]3CC[C@@]21C", "note": "[Cyproterone acetate]", "cell viability": 0.855}, {"smiles": "O=C(Nc1ccc(C(O)(C(F)(F)F)C(F)(F)F)cc1)c1ccc(C(F)(F)F)cc1", "cell viability": 1.07}, {"smiles": "Clc1ccc(CO/N=C(\\Cn2ccnc2)c2ccc(Cl)cc2Cl)c(Cl)c1", "note": "[Oxiconazole nitrate]", "cell viability": 0.951}, {"smiles": "COc1ccc(-c2ccc3ncc4c(c3c2)n(-c2ccc(N3CCNCC3)c(C(F)(F)F)c2)c(=O)n4C)cn1", "cell viability": 0.172}, {"smiles": "Clc1ccc(Cn2c(CN3CCCC3)nc3ccccc32)cc1", "note": "[Clemizole]", "cell viability": 1.06}, {"smiles": "COc1cc2nc(N(C)CCCNC(=O)C3CCCO3)nc(N)c2cc1OC", "note": "(stereo not drawn) [Alfuzosin hydrochloride]", "cell viability": 1.12}, {"smiles": "COc1c2c(cc3c1-c1c(cc4c(c1OC)OCO4)C[C@H](C)[C@H](C)C3)OCO2", "note": "[Schisandrin C]", "cell viability": 0.951}, {"smiles": "CC1(C)CC(=O)c2c(C(F)(F)F)nn(-c3ccc(C(N)=O)c(N[C@H]4CC[C@H](O)CC4)c3)c2C1", "cell viability": 0.209}, {"smiles": "O=C(O)/C=C/c1ccc(O)c(O)c1", "note": "[Caffeic Acid]", "cell viability": 1}, {"smiles": "CCCCc1nc2cc(/C=C/C(=O)NO)ccc2n1CCN(CC)CC", "note": "[Pracinostat]", "cell viability": 0.872}, {"smiles": "CC(=O)O[C@]1(C(C)=O)CC[C@H]2[C@@H]3CCC4=CC(=O)CCC4=C3[C@@H](c3ccc(N(C)C)cc3)C[C@@]21C", "note": "[Ulipristal acetate]", "cell viability": 1.25}, {"smiles": "N#CSc1cc(SC#N)c(N)nc1N", "cell viability": 0.779}, {"smiles": "CC(=O)Nc1nc2c(Oc3cc(-c4ccc(C(F)(F)F)cc4)ncn3)cccc2s1", "cell viability": 1.1}, {"smiles": "N[C@@H](Cc1c[nH]c2ccc(O)cc12)C(=O)O", "note": "[L-5-Hydroxytryptophan]", "cell viability": 1}, {"smiles": "CC#CC(=O)N1CCC[C@H]1c1nc(-c2ccc(C(=O)Nc3ccccn3)cc2)c2c(N)nccn12", "note": "[Acalabrutinib]", "cell viability": 1.14}, {"smiles": "CN1C[C@@H]2C[C@H]1CN2c1cc2c(cc1F)c(=O)c(C(=O)O)cn2C1CC1", "note": "[Danofloxacin mesylate]", "cell viability": 1.11}, {"smiles": "CC(C)n1nc(-c2ccc3oc(N)nc3c2)c2c(N)ncnc21", "cell viability": 0.222}, {"smiles": "N=C(N)Nc1ccc(C(=O)Oc2ccc3cc(C(=N)N)ccc3c2)cc1", "note": "[Nafamostat mesylate]", "cell viability": 1.08}, {"smiles": "Nc1ccc(/C=C/C(=O)NCc2cc3cc(-c4ccc(C(=O)N5CCC(F)(F)CC5)cc4)cc(-c4ccc(F)cc4)c3o2)cn1", "cell viability": 1.12}, {"smiles": "O=C(NO)c1cccc(C(=O)NCCc2ccccc2)c1", "cell viability": 1.08}, {"smiles": "COc1ccc(CC(C)(C)NC[C@H](O)c2cc(O)cc3c2OCC(=O)N3)cc1", "note": "[Olodaterol]", "cell viability": 0.923}, {"smiles": "Nc1cccc2c1C(=O)N(C1CCC(=O)NC1=O)C2=O", "note": "(stereo not drawn) [Pomalidomide]", "cell viability": 1.17}, {"smiles": "Oc1ccc(OC2CCCCO2)cc1", "note": "(stereo not drawn) [Deoxyarbutin]", "cell viability": 0.997}, {"smiles": "C=C1C[C@@]23CC[C@H]4[C@@](C)(CCC[C@@]4(C)C(=O)O)[C@@H]2CC[C@]1(O)C3", "note": "[Steviol]", "cell viability": 0.857}, {"smiles": "O=C(NCC(=O)N1CC[C@H](N[C@H]2CC[C@@](O)(c3ccc(-c4ncccn4)cn3)CC2)C1)c1cccc(C(F)(F)F)c1", "cell viability": 1.16}, {"smiles": "CC1(C)CCC(C)(C)c2cc(NC(=O)c3ccc(C(=O)O)cc3)ccc21", "note": "[Tamibarotene]", "cell viability": 0.582}, {"smiles": "COc1cc(C(=O)O)ccc1NC(=O)[C@@H]1N[C@@H](CC(C)(C)C)[C@](C#N)(c2ccc(Cl)cc2F)[C@H]1c1cccc(Cl)c1F", "note": "[Idasanutlin]", "cell viability": 1.02}, {"smiles": "O=C(O)C(O)Cc1ccc(O)c(O)c1", "note": "(stereo not drawn) [Sodium Danshensu]", "cell viability": 0.949}, {"smiles": "N=C(N)NC(=O)Cc1c(Cl)cccc1Cl", "note": "[Guanfacine hydrochloride]", "cell viability": 1.15}, {"smiles": "O=C1Nc2ccccc2/C1=C1/Nc2ccccc2C1=O", "note": "[Indirubin]", "cell viability": 0.995}, {"smiles": "COc1ccc(S(=O)(=O)Nc2cc(-c3c(O)ccc4ccccc34)c(O)c3ccccc23)cc1", "cell viability": 0.987}, {"smiles": "O=C1C[C@@H](c2ccc(O)cc2)Oc2cc(O)ccc21", "note": "[Liquiritigenin]", "cell viability": 1.1}, {"smiles": "CC(C)=CCC[C@](C)(O[C@@H]1O[C@H](CO)[C@@H](O)[C@H](O)[C@H]1O)[C@H]1CC[C@]2(C)[C@@H]1[C@H](O)C[C@@H]1[C@@]3(C)CC[C@H](O)C(C)(C)[C@@H]3[C@@H](O)C[C@]12C", "note": "[Ginsenoside F1]", "cell viability": 1.1}, {"smiles": "Nc1ncnc2c1ncn2[C@@H]1O[C@H](CO)[C@@H](O)[C@H]1O", "note": "[Adenosine]", "cell viability": 1.14}, {"smiles": "C=CC(=O)N1CC[C@H](n2nc(C#Cc3cc(OC)cc(OC)c3)c3c(N)ncnc32)C1", "cell viability": 0.875}, {"smiles": "C[C@@H](NC(=O)c1ncnc(N)c1Cl)c1ncc(C(=O)Nc2cc(C(F)(F)F)c(Cl)cn2)s1", "cell viability": 1.19}, {"smiles": "C[n+]1cc2c3c(ccc2c2ccc4cc5c(cc4c21)OCO5)OCO3", "note": "[Sanguinarine chloride]", "cell viability": 1.07}, {"smiles": "Cc1cc(/C=C2/SC(=S)NC2=O)c(C)n1-c1cccnc1", "note": "[Optovin]", "cell viability": 0.95}, {"smiles": "Nc1ccn([C@@H]2O[C@H](CO)[C@@H](O)C2(F)F)c(=O)n1", "note": "[Gemcitabine HCl]", "cell viability": 0.121}, {"smiles": "Nc1ccn([C@@H]2O[C@H](CO)[C@@H](O)C2(F)F)c(=O)n1", "note": "[Gemcitabine]", "cell viability": 0.0956}, {"smiles": "COc1ccccc1N1CCN(CCN(C(=O)C2CCCCC2)c2ccccn2)CC1", "cell viability": 1.09}, {"smiles": "CN(C)CCN(Cc1ccccc1)c1ccccn1", "note": "[Tripelennamine hydrochloride]", "cell viability": 1.03}, {"smiles": "CC1CNc2c(cccc2S(=O)(=O)N[C@@H](CCCNC(=N)N)C(=O)N2CC[C@@H](C)C[C@@H]2C(=O)O)C1", "note": "(stereo partly drawn) [Argatroban]", "cell viability": 1.18}, {"smiles": "C=CC1=C(C)c2cc3[nH]c(cc4nc(cc5[nH]c(cc1n2)c(C)c5CCC(=O)O)C(CCC(=O)O)=C4C)c(C)c3C=C", "note": "[Protoporphyrin IX]", "cell viability": 1.14}, {"smiles": "CO[C@H]1C[C@@H]2CC[C@@H](C)[C@@](O)(O2)C(=O)C(=O)N2CCCC[C@H]2C(=O)O[C@H]([C@H](C)C[C@@H]2CC[C@@H](OCCO)[C@H](OC)C2)CC(=O)[C@H](C)/C=C(\\C)[C@@H](O)[C@@H](OC)C(=O)[C@H](C)C[C@H](C)/C=C/C=C/C=C/1C", "note": "[Everolimus]", "cell viability": 0.704}, {"smiles": "Fc1ccc(Cl)cc1-c1nc(Nc2ccncc2)c2nccnc2n1", "cell viability": 1.11}, {"smiles": "C=C(C)[C@@H]1CC[C@]2(C(=O)O)CC[C@]3(C)[C@H](CC[C@@H]4[C@@]5(C)CCC(=O)C(C)(C)[C@@H]5CC[C@]43C)[C@@H]12", "note": "[Betulonic acid]", "cell viability": 0.94}, {"smiles": "O=C(/C=C/c1ccccc1)NC(NC(=S)Nc1cccc2cccnc12)C(Cl)(Cl)Cl", "note": "(stereo not drawn) [Salubrinal]", "cell viability": 1.2}, {"smiles": "CC(=O)OC(CC(C)C1=C2C[C@H](O)C3[C@@]4(C)CCC(=O)C(C)(C)C4CC[C@]3(C)[C@@]2(C)CC1)C1OC1(C)C", "note": "(stereo partly drawn) [Alisol B 23-acetate]", "cell viability": 0.99}]}]}
